Assay results: publication PMC6323126
Where a chain is given by its changes, count along the chain named. In names and notes the source's numbering stands. These are yes or no findings as the source states them, for the method shown. For some assays here: In cells and extracts the contact can be indirect. Some entries that bind do so weakly or less than the wild type. For some assays here: Where a sequence is shown, tags or fusion partners need not be part of it. Values belong to the binder of their own block, whether it stands above or below them.

Experiments:
[1] = target: T1, Flag-tagged STRN3 (wildtype, in cells) (human) (UniProt Q13033); assay: co-IP; HEK293FT cells transfected with tagged plasmids, lysed 24 h later in RIPA buffer; immunoprecipitation with indicated antibodies and Protein A/G beads; immunoblot
T1 sequence: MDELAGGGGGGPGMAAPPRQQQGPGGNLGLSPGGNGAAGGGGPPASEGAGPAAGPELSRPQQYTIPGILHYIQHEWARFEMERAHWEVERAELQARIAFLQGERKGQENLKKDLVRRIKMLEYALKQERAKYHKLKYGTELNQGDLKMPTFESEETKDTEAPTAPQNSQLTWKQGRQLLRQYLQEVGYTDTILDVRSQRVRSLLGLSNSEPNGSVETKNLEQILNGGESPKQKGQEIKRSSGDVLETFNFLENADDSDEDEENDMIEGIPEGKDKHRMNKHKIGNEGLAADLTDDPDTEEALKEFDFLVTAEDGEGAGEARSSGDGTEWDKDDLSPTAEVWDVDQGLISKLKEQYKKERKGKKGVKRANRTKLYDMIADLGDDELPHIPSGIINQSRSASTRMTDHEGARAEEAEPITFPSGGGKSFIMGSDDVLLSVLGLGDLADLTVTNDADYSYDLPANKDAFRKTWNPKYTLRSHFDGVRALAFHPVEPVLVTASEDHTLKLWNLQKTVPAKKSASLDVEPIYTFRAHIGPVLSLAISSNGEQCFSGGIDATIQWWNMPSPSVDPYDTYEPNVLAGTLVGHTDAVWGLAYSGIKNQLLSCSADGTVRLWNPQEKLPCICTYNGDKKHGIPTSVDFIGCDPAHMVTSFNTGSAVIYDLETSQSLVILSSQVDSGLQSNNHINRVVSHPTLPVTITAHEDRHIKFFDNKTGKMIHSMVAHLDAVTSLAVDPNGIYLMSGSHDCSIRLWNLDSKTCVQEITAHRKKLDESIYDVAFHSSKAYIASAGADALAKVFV

[2] = target: T2, Flag-tagged SLMAP (wildtype, in cells) (human) (UniProt Q14BN4); assay: as above
T2 sequence: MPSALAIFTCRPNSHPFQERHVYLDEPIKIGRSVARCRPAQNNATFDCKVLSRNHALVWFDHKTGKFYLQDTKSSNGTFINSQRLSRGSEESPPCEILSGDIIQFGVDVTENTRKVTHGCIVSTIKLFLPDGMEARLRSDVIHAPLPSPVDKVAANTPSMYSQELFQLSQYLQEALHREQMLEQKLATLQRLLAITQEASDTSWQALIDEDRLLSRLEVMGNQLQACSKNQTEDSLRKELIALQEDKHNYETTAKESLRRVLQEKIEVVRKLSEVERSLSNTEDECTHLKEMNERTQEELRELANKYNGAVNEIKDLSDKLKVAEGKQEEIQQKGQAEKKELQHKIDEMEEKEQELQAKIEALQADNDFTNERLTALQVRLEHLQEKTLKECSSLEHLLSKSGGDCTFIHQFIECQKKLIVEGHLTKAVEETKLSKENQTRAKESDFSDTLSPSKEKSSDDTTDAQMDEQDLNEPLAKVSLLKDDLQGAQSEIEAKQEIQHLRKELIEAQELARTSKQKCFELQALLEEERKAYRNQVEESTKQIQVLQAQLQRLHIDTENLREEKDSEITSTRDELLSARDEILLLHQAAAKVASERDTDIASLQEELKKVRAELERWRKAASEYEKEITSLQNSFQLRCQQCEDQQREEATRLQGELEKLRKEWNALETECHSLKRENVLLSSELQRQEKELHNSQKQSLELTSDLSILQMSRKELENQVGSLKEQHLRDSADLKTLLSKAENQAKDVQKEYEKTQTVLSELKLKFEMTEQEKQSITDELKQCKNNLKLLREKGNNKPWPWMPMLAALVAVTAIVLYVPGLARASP

[3] = target: T3, MBP-tagged STRN3 fragment (residues 64–341) (human) (UniProt Q13033); assay: pull-down; MBP pulldown: MBP-tagged protein, partner and amylose resin mixed at 4 °C for 1 h in 20 mM HEPES (pH 7.5), 100 mM NaCl; eluted with 20 mM maltose; SDS-PAGE, Coomassie staining; both purified
T3 sequence: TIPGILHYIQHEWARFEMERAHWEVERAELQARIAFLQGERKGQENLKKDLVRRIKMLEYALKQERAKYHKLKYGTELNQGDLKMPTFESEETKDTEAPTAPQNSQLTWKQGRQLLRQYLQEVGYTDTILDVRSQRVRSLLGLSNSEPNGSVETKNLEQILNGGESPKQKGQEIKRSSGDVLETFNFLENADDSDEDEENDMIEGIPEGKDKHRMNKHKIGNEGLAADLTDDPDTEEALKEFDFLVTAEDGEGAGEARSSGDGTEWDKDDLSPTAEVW

[4] = target: T4, MST1 (endogenous) (human (endogenous in HEK293FT)) (UniProt Q13043); assay: co-IP; endogenous proteins, HEK293FT cells at high (80%) and low (10%) cell density; immunoprecipitation of STRN3 or MST1; immunoblot
T4 sequence: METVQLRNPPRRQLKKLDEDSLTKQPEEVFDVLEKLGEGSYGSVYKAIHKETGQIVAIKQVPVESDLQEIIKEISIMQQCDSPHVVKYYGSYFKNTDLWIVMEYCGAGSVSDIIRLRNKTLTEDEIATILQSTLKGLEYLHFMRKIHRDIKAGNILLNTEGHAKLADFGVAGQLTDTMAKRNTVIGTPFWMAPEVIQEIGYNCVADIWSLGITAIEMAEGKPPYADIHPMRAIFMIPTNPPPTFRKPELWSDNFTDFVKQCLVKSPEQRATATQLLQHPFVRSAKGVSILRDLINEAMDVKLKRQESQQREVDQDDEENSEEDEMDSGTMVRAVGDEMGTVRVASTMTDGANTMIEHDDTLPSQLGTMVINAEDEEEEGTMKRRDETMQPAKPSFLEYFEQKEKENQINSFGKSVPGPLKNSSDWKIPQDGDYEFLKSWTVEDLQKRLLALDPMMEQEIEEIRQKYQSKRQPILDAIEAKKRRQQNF

binding [1]: no binding
B1: HA-tagged SIKE1 E96A/R109A (protein, UniProt Q9BRV8 1-207)
chain: MSCTIEKILTDAKTLLERLREHDAAAESLVDQSAALHRRVAAMREAGTALPDQYQEDASDMKDMSKYKPHILLSQENTQIRDLQQENRELWISLEAHQDALELIMSKYAKQMLQLMVAKKAVDAEPVLKAHQSHSAEIESQIDRICEMGEVMRKAVQVDDDQFCKIQEKLAQLELENKELRELLSISSESLQARKENSMDTASQAIK

binding [2]: no binding
B2: HA-tagged SIKE1 3LD (L15D/L19D/L36D) (protein, UniProt Q9BRV8 1-207)
chain: B1 chain with L15D, L19D, L36D, A96E, A109R

binding [1]: no binding
B3: HA-tagged SIKE1 A100D/M105E (protein, UniProt Q9BRV8 1-207)
chain: B1 chain with A96E, A100D, M105E, A109R

binding [3]: no binding
B4: coiled-coil region (residues 161–800) of SLMAP (domain or fragment, UniProt Q14BN4 161-800)
chain: YSQELFQLSQYLQEALHREQMLEQKLATLQRLLAITQEASDTSWQALIDEDRLLSRLEVMGNQLQACSKNQTEDSLRKELIALQEDKHNYETTAKESLRRVLQEKIEVVRKLSEVERSLSNTEDECTHLKEMNERTQEELRELANKYNGAVNEIKDLSDKLKVAEGKQEEIQQKGQAEKKELQHKIDEMEEKEQELQAKIEALQADNDFTNERLTALQVRLEHLQEKTLKECSSLEHLLSKSGGDCTFIHQFIECQKKLIVEGHLTKAVEETKLSKENQTRAKESDFSDTLSPSKEKSSDDTTDAQMDEQDLNEPLAKVSLLKDDLQGAQSEIEAKQEIQHLRKELIEAQELARTSKQKCFELQALLEEERKAYRNQVEESTKQIQVLQAQLQRLHIDTENLREEKDSEITSTRDELLSARDEILLLHQAAAKVASERDTDIASLQEELKKVRAELERWRKAASEYEKEITSLQNSFQLRCQQCEDQQREEATRLQGELEKLRKEWNALETECHSLKRENVLLSSELQRQEKELHNSQKQSLELTSDLSILQMSRKELENQVGSLKEQHLRDSADLKTLLSKAENQAKDVQKEYEKTQTVLSELKLKFEMTEQEKQSITDELKQCKNNLKLLREKGNNKP

binding [4]: binds
B5: SLMAP (endogenous) (protein, UniProt Q14BN4 1-828)
chain: T2 sequence

binding [4]: binds
B6: STRN3 (endogenous) (protein, UniProt Q13033 1-797)
chain: T1 sequence

binding [2]: no binding
B7: HA-tagged SIKE1 Δ1–48 (protein, UniProt Q9BRV8)
chain: ALPDQYQEDASDMKDMSKYKPHILLSQENTQIRDLQQENRELWISLEEHQDALELIMSKYRKQMLQLMVAKKAVDAEPVLKAHQSHSAEIESQIDRICEMGEVMRKAVQVDDDQFCKIQEKLAQLELENKELRELLSISSESLQARKENSMDTASQAIK

binding [1]: no binding
B8: HA-tagged SIKE1 Δ72–121 (protein, UniProt Q9BRV8)
chain: MSCTIEKILTDAKTLLERLREHDAAAESLVDQSAALHRRVAAMREAGTALPDQYQEDASDMKDMSKYKPHIVDAEPVLKAHQSHSAEIESQIDRICEMGEVMRKAVQVDDDQFCKIQEKLAQLELENKELRELLSISSESLQARKENSMDTASQAIK
